Experimental data: PubChem BioAssay AID1963979 (Molecular Pharmacology Branch, DTP, NCI, 2024)
Some entries of the source have several records that differ or are many. The list is limited to them. An entry can have further records. The records of an entry are repeated measurements across runs, samples, wells, individuals or studies. One block for each compound: values may come before it.

Tested on: 361931-004-R-J1-PDC multicell spheroid viability
Assay: Anticancer human tumor 361931-004-R-J1-PDC patient-derived colon adenocarcinoma cell line growth inhibition [PI3K]
Details: for IC50: compound alone; for viability, T/C: stronger effect = lower value
Description: Combinatorial screen of targeted agents with the PI3K inhibitors inavolisib, alpelisib, duvelisib, and copanlisib in multi-cell type tumor spheroids
A high-throughput screen of multi-cell type tumor spheroids was designed to identify active combinations of targeted small molecules and PI3K pathway inhibitors. Complex spheroids include a stromal component modeled by human endothelial cells (HUVEC) and fibroblasts modeled by human mesenchymal stem cells (MSCs). The concentration ranges selected for each drug and investigational agent were based upon clinically achievable concentrations if the clinical Cmax of the agent was known.
Compounds. The drugs and investigational agents: inavolisib (NSC800729), alpelisib (NSC765974), duvelisib (NSC772469), copanlisib (NSC816437), ipatasertib (NSC767898), afuresertib (NSC778305), talazoparib (NSC767125), sapanisertib (NSC764658), selumetinib (NSC741078), tovorafenib (DAY101, NSC766906), vemurafenib (NSC761431), ravoxertinib (NSC781343), sotorasib (NSC818433), MRTX1133 (NSC 836407), abemaciclib (NSC 768073), palbociclib (NSC758247), venetoclax (NSC 766270), SY5609 (NSC837396), enzalutamide (NSC755605), and darolutamide (NSC825331), were obtained from the National Cancer Institute (NCI) Developmental Therapeutics Program Chemical Repository. The FDA-approved anticancer drug set is available from the NCI Developmental Therapeutics Program. […] The stock solutions were prepared in dimethyl sulfoxide (DMSO, Sigma-Aldrich, St. Louis, MO, cat. D2650) at 800-fold the tested concentration and stored at -70 degrees C prior to their use. All drugs and investigational agents were tested over a range starting from a high concentration at or near the clinical Cmax and decreasing in half-log increments. If the clinical Cmax for an agent had not been determined, the highest concentration tested was 10 microM.
Cell Culture. All cells were maintained in an incubator at 37 degrees C and 5% CO2 with 95% humidity. The PDC lines were cultured according to standard operating procedures established by the NCI PDMR (https://pdmr.cancer.gov/sops/default.htm). All PDCs were thawed and cultured in Matrigel-coated flasks prepared with a working solution of 1X Ham's F-12 nutrient mix, without supplementation (Invitrogen, Waltham, MA, cat. 11765054), 100 U/mL penicillin-streptomycin (Invitrogen, cat. 15140122), and 2.5% Matrigel (Corning Inc., Corning, NY, cat. 354248) for the first three passages. The 354836-022-R-J1-PDC, 475296-252-R-J1-PDC, and 997726-040-R-J2-PDC lines were cultured in 6A media, which includes advanced DMEM/F-12 (Thermo Fisher Scientific, cat. 12634028), 10 mM HEPES (Thermo Fisher Scientific, cat. 15630080), 1X GlutaMAX supplement (Thermo Fisher Scientific, cat. 35050061), 0.1 mg/mL primocin (InvivoGen, San Diego, CA, cat. ant-pm-2), 10% defined fetal bovine serum, heat inactivated (HyClone Laboratories Inc., Logan, UT, cat. SH30070.03HI), 50% L-WRN conditioned media (ATCC, cat. CRL-3276), 1.25 mM N-Acetyl-L-cysteine (Sigma-Aldrich, cat. A9165), 10 mM nicotinamide (Sigma-Aldrich, cat. N0636), 1X B-27 supplement (Thermo Fisher Scientific, cat. 17504044), 1X N-2 supplement (Thermo Fisher Scientific, cat. 17502048), and 10 microM Y-27632 dihydrochloride (Tocris Bioscience, Bristol, United Kingdom, cat. 1254). The 624824-186-R-J2-PDC line was cultured in 6C/Colon 1B media, which includes all 6A media components plus 50 ng/mL human EGF recombinant protein (Thermo Fisher Scientific, cat. PHG0311). […]
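Further: spheroids exposed to agents for seven days before readout.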

IC50: 1.38, 1.44, 2.88, 4.35 µM
Structure (SMILES): CC(C)NCC(C(=O)N1CCN(c2ncnc3c2C(C)CC3O)CC1)c1ccc(Cl)cc1 (stereo unspecified)
viability, T/C (compound alone 1 µM): 53.7, 58.3, 74.1, 87.3%

Structure (SMILES): C#Cc1c(F)ccc2cc(O)cc(-c3ncc4c(N5CC6CCC(C5)N6)nc(OCC56CCCN5CC(F)C6)nc4c3F)c12 (stereo unspecified)
viability, T/C (compound alone 10 µM): 72, 65.7, 87.8, 97.5%

Structure (SMILES): Cc1nc(NC(=O)N2CCCC2C(N)=O)sc1-c1ccnc(C(C)(C)C(F)(F)F)c1 (stereo unspecified)
viability, T/C (compound alone 0.1 µM): 97.3, 102, 104, 95.6, 92.6, 79, 103, 107%

Structure (SMILES): CC1(C)CCC(CN2CCN(c3ccc(C(=O)NS(=O)(=O)c4ccc(NCC5CCOCC5)c([N+](=O)[O-])c4)c(Oc4cnc5[nH]ccc5c4)c3)CC2)=C(c2ccc(Cl)cc2)C1
viability, T/C (compound alone 3.16 µM): 65.5, 65.1, 79.5, 93.5%

Structure (SMILES): Cn1ncnc1[C@H]1c2n[nH]c(=O)c3cc(F)cc(c23)N[C@@H]1c1ccc(F)cc1
viability, T/C (compound alone 0.1 µM): 78.3, 87.4, 104, 92.8%

IC50: 1.39 µM, 665 nM, 2.68 µM, 2.69 µM
Structure (SMILES): Cn1ncc(Cl)c1-c1cc(C(=O)NC(CN)Cc2cccc(F)c2)sc1Cl (stereo unspecified)
viability, T/C (compound alone 0.316 µM): 74.4, 63, 92.7, 98.8% | viability, T/C (compound alone 1 µM): 50.8, 41.1, 71.6, 67.2%

Structure (SMILES): CC1(C)CCC(Nc2ncc(C(F)(F)F)c(-c3c[nH]c4c(P(C)(C)=O)c(C#N)ccc34)n2)CN1 (stereo unspecified)
viability, T/C (compound alone 0.0316 µM): 85.5, 73.7, 109, 96.5% | viability, T/C (compound alone 0.316 µM): 59.5, 69.1, 90.4, 92.5% | viability, T/C (compound alone 1 µM): 84.4, 70.4, 105, 90.6% | viability, T/C (compound alone 3.16 µM): 81.6, 66.9, 102, 87.2%

Structure (SMILES): CCN1CCN(Cc2ccc(Nc3ncc(F)c(-c4cc(F)c5nc(C)n(C(C)C)c5c4)n3)nc2)CC1
viability, T/C (compound alone 0.0316 µM): 81.9, 86.4, 104, 108% | viability, T/C (compound alone 0.316 µM): 78.8, 97.2, 117, 108% | viability, T/C (compound alone 1 µM): 76.8, 73.1, 104, 90.5%
